According to PubChem BioAssay (NCATS):
This list was built around the results that the source calls inconclusive (neither active nor inactive); the mix of calls is not that of the screen. For some of these results: Where the call is inconclusive, the potency comes from a doubtful curve fit. Activity calls are given as the source filed them. The call rests on the fitted dose curve; in most records, active means well fitted curve in the direction sought with a large enough effect; inconclusive means small, poorly fitted or top-dose-only effect, or another doubt; inactive means no such curve, though single readings can be large; an effect the other way counts as inactive or inconclusive.

What was measured:
MKL-2 = test: qHTS assay to identify novel small-molecules to repurpose for Merkel cell carcinoma treatment (AID 1296009); conditions: MCC and control cell lines, CellTiter-Glo viability, 72 h; series mostly up to 46 µM; further: nearly all actives have a fitted effect of over 60% in size; on activity change, negative = cytotoxicity: on the % scale 0 is the no-effect control and ±100 the full control effect
How it was run: (§1)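 Viability readout: ATP luminescence (CellTiter-Glo) after 72 hr drug exposure at 37 degree celsius. Dose-response format was 8 points for NPC and 11 points for MIPE; data normalized to in-plate controls.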

UISO = test: as above; conditions: MCC and control cell lines, CellTiter-Glo viability, 72 h; activity change, negative = cytotoxicity: at 46 µM (top of the series) unless noted
How it was run: as §1

WaGa = test: as above; conditions: MCC and control cell lines, CellTiter-Glo viability, 72 h; series mostly up to 46 µM
How it was run: as §1

C33A = test: Primary qHTS to identify gynecologic anti-cancer compounds using libraries of approved drugs and bioactive compounds (AID 1345084); conditions: Gynecologic cancer cell panel viability, ATPlite luminescence, 48 h; series mostly up to 57.5 µM; further: nearly all actives have a fitted effect of over 55% in size; on activity change, negative = cytotoxicity: on the % scale 0 is the no-effect control and ±100 the full control effect
How it was run: (§2)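 Luminescence from the ATPlite ATP-monitoring reagent indicates viable cell number; lower signal means cytotoxicity. Cells received compound 16 h after seeding and were exposed for 48 h across five concentrations.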

CAOV3 = test: as above; conditions: Gynecologic cancer cell panel viability, ATPlite luminescence, 48 h; series mostly up to 57.5 µM
How it was run: as §2

Es-2 = test: as above; conditions: Gynecologic cancer cell panel viability, ATPlite luminescence, 48 h; series mostly up to 57.5 µM
How it was run: as §2

HeLa = test: as above; conditions: Gynecologic cancer cell panel viability, ATPlite luminescence, 48 h; series mostly up to 57.5 µM
How it was run: as §2

Hek293T = test: as above; conditions: Gynecologic cancer cell panel viability, ATPlite luminescence, 48 h, control line for the selectivity index; series mostly up to 57.5 µM
How it was run: as §2

CASKI = test: as above; conditions: Gynecologic cancer cell panel viability, ATPlite luminescence, 48 h; series mostly up to 57.5 µM
How it was run: as §2

JEG-3 = test: as above; conditions: Gynecologic cancer cell panel viability, ATPlite luminescence, 48 h; series mostly up to 57.5 µM
How it was run: as §2

PC49 = test: qHTS profiling for inhibitors of Plasmodium falciparum proliferation (AID 504749); further: nearly all actives have a fitted effect of over 60% in size; conditions: P. falciparum in erythrocytes, SYBR Green DNA, 72 h; series mostly up to 28.7 µM
How it was run: (§3)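 Quantitative HTS: compounds pinned into medium, infected erythrocytes added (0.3% parasitemia, 2.5% hematocrit), 72 h culture at 37 C under 5% CO2. Saponin/Triton lysis with SYBR Green I, overnight RT, then fluorescence read.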

TAB113 = test: as above; conditions: P. falciparum in erythrocytes, SYBR Green DNA, 72 h; series mostly up to 28.7 µM
How it was run: as §3

SC27B = test: as above; conditions: P. falciparum in erythrocytes, SYBR Green DNA, 72 h; series mostly up to 28.7 µM
How it was run: as §3

OV90 = test: Primary qHTS to identify gynecologic anti-cancer compounds using libraries of approved drugs and bioactive compounds (AID 1345084); conditions: Gynecologic cancer cell panel viability, ATPlite luminescence, 48 h; series mostly up to 57.5 µM; further: nearly all actives have a fitted effect of over 55% in size; on activity change, negative = cytotoxicity: on the % scale 0 is the no-effect control and ±100 the full control effect
How it was run: as §2

TAB109 = test: qHTS profiling for inhibitors of Plasmodium falciparum proliferation (AID 504749); further: nearly all actives have a fitted effect of over 60% in size; conditions: P. falciparum in erythrocytes, SYBR Green DNA, 72 h; series mostly up to 28.7 µM
How it was run: as §3

W2 = test: as above; conditions: P. falciparum in erythrocytes, SYBR Green DNA, 72 h; series mostly up to 28.7 µM
How it was run: as §3

TAB165 = test: as above; conditions: P. falciparum in erythrocytes, SYBR Green DNA, 72 h; series mostly up to 28.7 µM
How it was run: as §3
Potency means the concentration at half of the fitted maximal effect; tags describe the fitted curve by direction and shape.

CC(C)Oc1cccc(NC(=O)c2ccccc2C(F)(F)F)c1
active: Potency (WaGa) 38.6 µM
inconclusive: Potency (MKL-2) 38.6 µM [inhibitor, partial curve] | activity change, negative = cytotoxicity (UISO) -35.8% [inhibitor] [at 92.7 µM] | Potency (C33A) 63.1 µM [cytotoxic, single point] | Potency (CAOV3) 31.6 µM [cytotoxic, partial curve, poor fit] | Potency (Es-2) 70.8 µM [cytotoxic, single point] | Potency (HeLa) 70.8 µM [cytotoxic, single point] | Potency (Hek293T) 39.8 µM [cytotoxic, single point]

C[N+]1(CCF)[C@@H]2CC[C@H]1CC(OC(=O)C(O)(c1ccccc1)c1ccccc1)C2 (some centres undefined)
inactive: Potency (MKL-2) | Potency (UISO) | Potency (WaGa)

O=C(NC(O)C(Cl)(Cl)Cl)NC(O)C(Cl)(Cl)Cl (centres undefined)
inactive: Potency (MKL-2)

COc1cccc2c1C(=O)c1c(O)c3c(c(O)c1C2=O)C[C@@](O)(C(=O)CO)CC3OC1CC(N2CCOC(OC)C2)C(O)C(C)O1 (some centres undefined)
inconclusive: Potency (MKL-2) 0.0053 µM [inhibitor, full curve, poor fit] | Potency (CAOV3) 1.26 µM [cytotoxic, full curve, poor fit] | Potency (CASKI) 0.1 µM [cytotoxic, full curve, poor fit] | Potency (Es-2) 0.0316 µM | Potency (Hek293T) 0.1 µM [cytotoxic, full curve, poor fit] | Potency (JEG-3) 0.355 µM [cytotoxic, full curve, poor fit]
active: Potency (UISO) 0.0188 µM | Potency (WaGa) 0.0237 µM | Potency (C33A) 0.282 µM | Potency (HeLa) 0.224 µM

COC[C@H]1OC(=O)c2coc3c2[C@@]1(C)C1=C(C3=O)C2CCC(=O)[C@@]2(C)C[C@H]1OC(C)=O (some centres undefined)
active: Potency (MKL-2) 7.43 µM | Potency (WaGa) 8.33 µM
inactive: Potency (Es-2) | Potency (Hek293T)

CCOC(=O)C1(c2ccccc2)CCN(CCC(C#N)(c2ccccc2)c2ccccc2)CC1
active: Potency (TAB113) 2.24 µM
inconclusive: Potency (PC49) 3.98 µM [inhibitor, partial curve] | Potency (MKL-2) 21.1 µM [inhibitor, partial curve, poor fit] | Potency (UISO) 21.1 µM [inhibitor, partial curve] | Potency (Es-2) 22.4 µM [cytotoxic, partial curve, poor fit] | Potency (Hek293T) 31.6 µM [cytotoxic, single point]

CN1C[C@H](CNC(=O)OCc2ccccc2)C[C@@H]2c3cccc4c3c(cn4C)C[C@H]21
inconclusive: Potency (SC27B) 11.2 µM [inhibitor, single point] | Potency (MKL-2) 18.8 µM [inhibitor, single point] | Potency (UISO) 21.1 µM [inhibitor, single point] | Potency (CAOV3) 35.5 µM [cytotoxic, single point]

CC(=O)NC1CCSC1=O (centres undefined)
inconclusive: Potency (MKL-2) 29.9 µM [inhibitor, single point] | Potency (CAOV3) 20 µM [rising, single point]
inactive: Potency (UISO)

CN1CCN(c2ccc([N+](=O)[O-])c3no[n+]([O-])c23)CC1
inactive: Potency (JEG-3)
inconclusive: Potency (MKL-2) 13.2 µM [inhibitor, partial curve] | Potency (WaGa) 20.9 µM [inhibitor, partial curve, poor fit]

NC1(c2ccccc2)CCCCC1
inactive: Potency (OV90)
inconclusive: Potency (MKL-2) 7.62 µM [inhibitor, partial curve, poor fit] | Potency (WaGa) 30.3 µM [inhibitor, partial curve, poor fit] | Potency (C33A) 1 µM [cytotoxic, full curve, poor fit] | Potency (HeLa) 70.8 µM [cytotoxic, single point]

CN(C)[C@@H]1C(=O)C(C(N)=O)=C(O)[C@@]2(O)C(=O)C3=C(O)c4c(O)cccc4[C@@](C)(O)[C@H]3C[C@@H]12
inactive: Potency (MKL-2) | Potency (WaGa) | Potency (HeLa) | Potency (Hek293T)

N#CC(C#N)=Cc1ccc(O)c(O)c1
inconclusive: Potency (TAB109) 10 µM [inhibitor, single point] | Potency (TAB113) 17.8 µM [inhibitor, single point] | Potency (W2) 19 µM [inhibitor, single point] | Potency (MKL-2) 5.31 µM [inhibitor, partial curve] | Potency (UISO) 23.7 µM [inhibitor, single point] | Potency (JEG-3) 39.8 µM [cytotoxic, single point]

CCC1(c2cccc(O)c2)CCCCN(C)C1 (centres undefined)
inactive: Potency (MKL-2) | Potency (CAOV3)

CCOP(=S)(OCC)Oc1ccc2c(C)c(Cl)c(=O)oc2c1
inconclusive: Potency (SC27B) 14.1 µM [inhibitor, single point] | Potency (TAB109) 8.91 µM [inhibitor, single point] | Potency (TAB165) 14.1 µM [inhibitor, partial curve] | Potency (MKL-2) 3.76 µM [inhibitor, partial curve, poor fit] | Potency (WaGa) 26.6 µM [inhibitor, single point]
